Data from patent US20260008835A1 (SHANGHAI REGENELEAD THERAPIES, published 2026).
Like-named read-outs stand apart in the source and are kept apart here.

T1: Human VEGF-A protein (human, UniProt P15692-4 27-191, limits assumed)
T1 sequence (looked up): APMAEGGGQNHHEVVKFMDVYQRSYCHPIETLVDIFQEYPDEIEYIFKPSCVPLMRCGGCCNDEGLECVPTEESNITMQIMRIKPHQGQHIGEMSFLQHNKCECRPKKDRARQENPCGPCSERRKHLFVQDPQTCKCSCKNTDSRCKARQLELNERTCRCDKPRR

T2: Human VEGF-B protein (human, UniProt P49765-2 22-188, limits assumed)
T2 sequence (looked up): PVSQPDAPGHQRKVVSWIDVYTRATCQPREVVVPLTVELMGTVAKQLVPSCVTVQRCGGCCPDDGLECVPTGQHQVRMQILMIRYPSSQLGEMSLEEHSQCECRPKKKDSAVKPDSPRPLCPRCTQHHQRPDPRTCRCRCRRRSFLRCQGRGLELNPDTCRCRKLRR

T3: Human VEGF-C protein (human, UniProt P49767 112-227, limits assumed)
T3 construct: Treated as one molecule; also called VEFG-C
T3 sequence (looked up): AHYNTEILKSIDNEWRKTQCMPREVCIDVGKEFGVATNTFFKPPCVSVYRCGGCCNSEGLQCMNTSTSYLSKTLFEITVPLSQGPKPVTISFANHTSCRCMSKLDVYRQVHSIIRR


Columns and labels:
Human VEGF-A protein [1] = molecular target: T1, Human VEGF-A protein; assay: cell-based or functional assay
Human VEGF-A protein [2] = molecular target: T1, Human VEGF-A protein; assay: SPR (Biacore T200), binder captured on Protein A chip, VEGF as analyte, multi-cycle
Human VEGF-B protein = molecular target: T2, Human VEGF-B protein; assay: as above
Human VEGF-A protein [3] = molecular target: T1, Human VEGF-A protein; assay: cell-based or functional assay; remark: listed apart in the source
Human VEGF-A protein [4] = molecular target: T1, Human VEGF-A protein; assay: cell-based or functional assay; remark: listed apart in the source
Human VEGF-A protein [5] = molecular target: T1, Human VEGF-A protein; assay: cell-based or functional assay; remark: listed apart in the source
Human VEGF-C protein = molecular target: T3, Human VEGF-C protein; assay: SPR (Biacore T200), binder captured on Protein A chip, VEGF as analyte, multi-cycle

Binder	VEGF-A IC50; VEGF-A-induced NFAT-RE-luc2P/KDR HEK293 reporter gene expression (Human VEGF-A protein [1]) [nM]	Kd (Human VEGF-A protein [2]) [nM]	koff (Human VEGF-A protein [2]) [s⁻¹]	kon (Human VEGF-A protein [2]) [M⁻¹ s⁻¹]	Kd (Human VEGF-B protein) [nM]	koff (Human VEGF-B protein) [s⁻¹]	kon (Human VEGF-B protein) [M⁻¹ s⁻¹]	VEGF-A IC50; VEGF-A-induced NFAT-RE-luc2P/KDR HEK293 reporter gene expression (Human VEGF-A protein [3]) [nM]	VEGF-A IC50; VEGF-A-induced NFAT-RE-luc2P/KDR HEK293 reporter gene expression (Human VEGF-A protein [4]) [nM]	VEGF-A IC50; VEGF-A-induced NFAT-RE-luc2P/KDR HEK293 reporter gene expression (Human VEGF-A protein [5]) [nM]	Kd (Human VEGF-C protein) [nM]	koff (Human VEGF-C protein) [s⁻¹]	kon (Human VEGF-C protein) [M⁻¹ s⁻¹]
Aflibercept (PR1076) (Fc fusion, Positive control for VEGF-A; also called R1D2-R2D3-Fc) SDTGRPFVEMYSEIPEIIHMTEGRELVIPCRVTSPNITVTLKKFPLDTLIPDGKRIIWDSRKGFIISNATYKEIGLLTCEATVNGHLYKTNYLTHRQTNTIIDVVLSPSHGIELSVGEKLVLNCTARTELNVGIDFNWEYPSSKHQHKKLVNRDLKTQSGSEMKKFLSTLTIDGVTRSDQGLYTCAASSGLMTKKNSTFVRVHEK[human IgG1 Fc not printed]	0.5	0.00818	8.46e-05	1.03e+07	0.0754	0.000114	1.51e+06	0.76	0.099	0.72			
PR1145 (R1D2-R2D3-linker-R2D2 (C162V)-R2D3 (S283T)-Fc) (Fc fusion) SDTGRPFVEMYSEIPEIIHMTEGRELVIPCRVTSPNITVTLKKFPLDTLIPDGKRIIWDSRKGFIISNATYKEIGLLTCEATVNGHLYKTNYLTHRQTNTIIDVVLSPSHGIELSVGEKLVLNCTARTELNVGIDFNWEYPSSKHQHKKLVNRDLKTQSGSEMKKFLSTLTIDGVTRSDQGLYTCAASSGLMTKKNSTFVRVHEKGGGGSSPFIASVSDQHGVVYITENKNKTVVIPCLGSISNLNVSLVARYPEKRFVPDGNRISWDSKKGFTIPSYMISYAGMVFCEAKINDESYQSIMYIVVVVGYRIYDVVLSPSHGIELSVGEKLVLNCTARTELNVGIDFNWEYPSSKHQHKKLVNRDLKTQSGTEMKKFLSTLTIDGVTRSDQGLYTCAASSGLMTKKNSTFVRVHEK[human IgG1 Fc with changes not printed]	0.92	0.045	9.87e-05	2.19e+06	0.0132	0.000271	2.05e+07		0.11		0.0284	7.98e-05	2.81e+06
PR1174 (R1D2-R2D3-linker-R2D2 (C162V/Y221S/R222K)-R2D3 (N274F/S283T)-Fc) (Fc fusion) SDTGRPFVEMYSEIPEIIHMTEGRELVIPCRVTSPNITVTLKKFPLDTLIPDGKRIIWDSRKGFIISNATYKEIGLLTCEATVNGHLYKTNYLTHRQTNTIIDVVLSPSHGIELSVGEKLVLNCTARTELNVGIDFNWEYPSSKHQHKKLVNRDLKTQSGSEMKKFLSTLTIDGVTRSDQGLYTCAASSGLMTKKNSTFVRVHEKGGGGSSPFIASVSDQHGVVYITENKNKTVVIPCLGSISNLNVSLVARYPEKRFVPDGNRISWDSKKGFTIPSYMISYAGMVFCEAKINDESYQSIMYIVVVVGSKIYDVVLSPSHGIELSVGEKLVLNCTARTELNVGIDFNWEYPSSKHQHKKLVFRDLKTQSGTEMKKFLSTLTIDGVTRSDQGLYTCAASSGLMTKKNSTFVRVHEK[human IgG1 Fc with changes not printed]		0.0429	0.000115	2.68e+06	0.321	0.000161	501000		0.12	1.02	0.0234	5.17e-05	2.21e+06
OPT-302 (HRAMD-C3) (Fc fusion, Positive control for VEGF-C) YSMTPPTLNITEESHVIDTGDSLSISCRGQHPLEWAWPGAQEAPATGDKDSEDTGVVRDCEGTDARPYCKVLLLHEVHAQDTGSYVCYYKYIKARIEGTTAASSYVFVRDFEQPFINKPDTLLVNRKDAMWVPCLVSIPGLNVTLRSQSSVLWPDGQEVVWDDRRGMLVSTPLLHDALYLQCETTWGDQDFLSNPFLVHITGNELYDIQLLPRKSLELLVGEKLVLNCTVWAEFNSGVTFDWDYPGKQAERGKWVPERRSQQTHTELSSILTIHNVSQHDLGSYVCKANNGIQRFRESTEVIVHE[human IgG1 Fc not printed]											0.0151	4.85e-05	3.21e+06
